The labels stand for the following.
B1: PhoQ; a variant is named by its letters at X, in order, P23837 (parent)
chain: MKKLLRLFFPLSLRVRFLLATAAVVLVLSLAYGMVALIGYSVSFDKTTFRLLRGESNLFYTLAKWENNKLHVELPENIDKQSPTMTLIYDENGQLLWAQRDVPWLMKMIQPDWLKSNGFHEIEADVNDTSLLLSGDHSIQQQLQEVREDDDDAEMTHSVAVNVYPATSRMPKLTIVVVDTIPVELKSSYMVWSWFIYVLSANLLLVIPLLWVAAWWSLRPIEALAKEVRELEEHNRELLNPATTRELTSLVRNLNRLLKSERERYDKYRTTLTDLTHSLKTPLXXLQXXLRSLRSEKMSVSDAEPVMLEQISRISQQIGYYLHRASMRGGTLLSRELHPVAPLLDNLTSALNKVYQRKGVNISLDISPEISFVGEQNDFVEVMGNVLDNACKYCLEFVEISARQTDEHLYIVVEDDGPGIPLSKREVIFDRGQRVDTLRPGQGVGLAVAREITEQYEGKIVAGESMLGGARMEVIFGRQHSAPKDE

The list shows a part of the results. Where only a bound is given, the exact number is not on record here.

The variants in the test derive from B1. Briefly: enrichment ratio after two sorts for PhoP signalling (ratio (wild type AVST 3.29)); higher = more functional. The settings on record: with PhoP (E. coli).
As to GERL, the enrichment ratio was ≤ 0.25.

As for RVYI, the enrichment ratio is ≤ 0.25.

Consider TNMT, for which the enrichment ratio turned out to be 7.25.

GPRL: the enrichment ratio was ≤ 0.25. For the variant ALNF, the enrichment ratio is 0.952. With WIFL, the enrichment ratio was ≤ 0.25. Next, SLLM: 6.84; MWFE: ≤ 0.25. The same measure for VEIR: ≤ 0.25.

For DQQV, the enrichment ratio is ≤ 0.25. The same measure for MLFR: ≤ 0.25; for YQIT: ≤ 0.25; for SLWE: ≤ 0.25. Turning to VFCW, the enrichment ratio is ≤ 0.25. The same measure for NSMM: 1.7; for ATTR: ≤ 0.25; for HEHV: ≤ 0.25.

Regarding RQMV, the enrichment ratio is ≤ 0.25. Next, DEMG: ≤ 0.25; LWSW: ≤ 0.25.

Regarding KSPK, the enrichment ratio was ≤ 0.25. Next, EQGG: ≤ 0.25.

On to WCHI, for which the enrichment ratio is ≤ 0.25. Next, WLAK: ≤ 0.25. Regarding LDER, the enrichment ratio is ≤ 0.25. Consider QDYN, for which the enrichment ratio is ≤ 0.25.

As for PYFE, the enrichment ratio is ≤ 0.25. With WNFI, the enrichment ratio was ≤ 0.25. Next, VSNR: ≤ 0.25; EGRV: ≤ 0.25. PPQH: the enrichment ratio was ≤ 0.25. Regarding WDCP, the enrichment ratio is ≤ 0.25.

In the case of ISLV, the enrichment ratio worked out at 5.81. Next, QKMF: ≤ 0.25. Next, DMRN: ≤ 0.25; LQLN: 0.282; TKGQ: ≤ 0.25. The same measure for AEHH: ≤ 0.25. On to FSHC, for which the enrichment ratio was ≤ 0.25. Next, LQYM: ≤ 0.25; IKML: ≤ 0.25.

Turning to INVS, the enrichment ratio was ≤ 0.25.

On to TVGR, for which the enrichment ratio turned out to be 9.19. The same measure for GVRG: ≤ 0.25; for NFAT: ≤ 0.25; for PIFM: ≤ 0.25. Next, ARNT: ≤ 0.25; FNFE: ≤ 0.25.

As to QRDD, the enrichment ratio was ≤ 0.25. The same measure for FGNI: ≤ 0.25; for DYWS: ≤ 0.25.

For LGPG, the enrichment ratio is ≤ 0.25. The same measure for NSAE: ≤ 0.25; for QANT: ≤ 0.25; for QWFW: ≤ 0.25. The same measure for EAGP: ≤ 0.25; for LLRK: ≤ 0.25. Next, FWDS: ≤ 0.25. As for VWHI, the enrichment ratio is ≤ 0.25.

In the case of TPVA, the enrichment ratio was ≤ 0.25.

As to WAAG, the enrichment ratio is ≤ 0.25.

Consider PSTN, for which the enrichment ratio is ≤ 0.25.

For the variant ECIH, the enrichment ratio is ≤ 0.25. The same measure for RKEL: ≤ 0.25; for FWMA: ≤ 0.25. Next, EYRC: ≤ 0.25; TTHE: 11.2; NKGE: ≤ 0.25. The same measure for WPEE: ≤ 0.25.

For the variant HTCY, the enrichment ratio was ≤ 0.25. The same measure for YTGK: ≤ 0.25; for QPTE: ≤ 0.25. Next, LLFM: ≤ 0.25; GPGY: ≤ 0.25; GVPC: ≤ 0.25. Next, SLMK: 0.313; TPMF: ≤ 0.25. For the variant KIIN, the enrichment ratio was ≤ 0.25. Next, EPNI: ≤ 0.25. Next, DQVH: ≤ 0.25. Next, WLVM: ≤ 0.25; VNFS: ≤ 0.25; HTKG: ≤ 0.25.

With IVCW, the enrichment ratio was ≤ 0.25.
